# Reference: PubChem BioAssay AID588453 (National Center for Advancing Translational Sciences (NCATS), 2011)
# The campaign covered roughly 390,000 compounds. About 4,000 (1%) were called active. This list was built around the results that the source calls inconclusive (neither active nor inactive); the mix of calls is not that of the screen. Calls come from the whole dose curve; as a rule, active = well fitted inhibition curve with a large enough effect; inconclusive = small, poorly fitted or top-dose-only effect; inactive = no such curve, though single readings can be large or run the other way. Where the call is inconclusive, the potency comes from a doubtful curve fit.
# Biological target: Thioredoxin reductase 1, cytoplasmic (Rattus norvegicus) (UniProt O89049)
# Assay: qHTS Assay for Inhibitors of Mammalian Selenoprotein Thioredoxin Reductase 1 (TrxR1): qHTS; note: nearly all actives have a fitted effect of over 65% in size
# Conditions: recombinant rTrxR1, NADPH fluorescence consumption, selenite substrate; series mostly up to 114 µM
# In short: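 Rat TrxR1 (90 nM in the dispensed reagent) was pre-reduced with 400 uM NADPH for 5 min at room temperature, then incubated with compound for 15 min. After 400 uM selenite was added, NADPH fluorescence (Ex 340/Em 450 nm) was followed for 8 min.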
# Potency is the fitted concentration of half-maximal effect; tags give direction and shape of the fitted curve.
# Sequence of UniProt O89049 (O89049 whole entry, looked up): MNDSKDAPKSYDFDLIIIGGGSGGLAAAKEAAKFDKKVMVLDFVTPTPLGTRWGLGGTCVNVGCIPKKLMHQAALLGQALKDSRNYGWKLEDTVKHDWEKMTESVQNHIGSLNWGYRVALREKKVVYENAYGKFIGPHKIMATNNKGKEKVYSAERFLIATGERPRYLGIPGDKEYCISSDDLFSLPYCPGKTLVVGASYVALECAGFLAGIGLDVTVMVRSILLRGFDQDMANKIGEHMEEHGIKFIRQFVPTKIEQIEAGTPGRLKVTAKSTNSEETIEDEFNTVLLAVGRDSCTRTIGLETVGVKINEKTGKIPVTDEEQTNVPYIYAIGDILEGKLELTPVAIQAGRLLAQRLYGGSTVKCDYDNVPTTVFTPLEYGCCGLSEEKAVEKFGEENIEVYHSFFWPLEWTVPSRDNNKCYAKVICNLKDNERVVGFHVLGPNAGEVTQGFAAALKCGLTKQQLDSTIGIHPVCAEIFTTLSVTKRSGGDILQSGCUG
row,SMILES,Potency
1,COc1cc2[nH]c(=S)nc(NCc3cccc(Cl)c3)c2cc1OC,"inconclusive: 79.4 µM [inhibitor, partial curve, poor fit]"
2,Cc1[nH]c2ccccc2c1/C=N/NC(=O)c1ccc(N)cc1,"inconclusive: 79.4 µM [inhibitor, partial curve, poor fit]"
3,O=C(NC(=S)Nc1ccc(S(=O)(=O)Nc2nccs2)cc1)c1ccc(F)c(F)c1,"inconclusive: 50.1 µM [inhibitor, partial curve, poor fit]"
4,CNC(=O)c1c(NC(=O)C2=COCCO2)sc2c1CCN(C(=O)OC)C2,"inconclusive: 89.1 µM [inhibitor, partial curve, poor fit]"
5,Cc1cc(C(=O)NCc2ccc(S(N)(=O)=O)cc2)c(C)o1,"inconclusive: 12.6 µM [inhibitor, full curve]"
6,O=C(NC(=S)Nc1ccc(CN2CCOCC2)cc1)c1cccc(F)c1,"inconclusive: 11.2 µM [inhibitor, single point]"
7,O=C(CN1C(=O)CCC1=O)NCC12CC3CC(CC(C3)C1)C2,"inconclusive: 31.6 µM [inhibitor, single point]"
8,CC(C)(C)c1ccc(C(=O)OCC(=O)N2CCC(c3ccccc3)=N2)cc1,"inconclusive: 39.8 µM [inhibitor, single point]"
9,Cc1c(CC(=O)NCCc2ccccc2F)c(=O)oc2cc(O)c(Cl)cc12,active: 70.8 µM
10,O=C(COc1ccccc1[N+](=O)[O-])N1CCC(c2nc3ccccc3o2)CC1,inactive
11,COC1=CC(=O)C(C2CC(=O)c3c(O)cc(O)cc3O2)=CC1=O (centres undefined),"inconclusive: 2 µM [inhibitor, partial curve]"
12,Cc1ccc(NC(=O)NCc2cccnc2)cc1Cl,inactive
13,Cc1ccc(NC(=O)c2c(C)oc3ccc(O)c(CN4CCCCCC4)c23)cc1,"inconclusive: 79.4 µM [inhibitor, single point]"
14,O=C(c1ccc(OC2CCN(CCc3ccccc3)CC2)cc1)N1CCCC1,inactive
15,C=CCOc1ccc(CNc2ccc3[nH]c(=O)[nH]c3c2)cc1OCC,inactive
16,Cc1cc(C)nc(SCC(=O)Nc2ccnc3ccccc23)n1,inactive
17,CCc1ccc(-c2nc(CS(=O)CC(=O)NCCCN3CCC(C)CC3)c(C)o2)cc1 (centres undefined),"inconclusive: 70.8 µM [inhibitor, partial curve, poor fit]"
18,Cc1cccc(N=C2NC(=O)/C(=C/C=C/c3ccco3)S2)c1C,"inconclusive: 22.4 µM [inhibitor, single point]"
19,CNC[C@@H]1Oc2ccc(NS(=O)(=O)c3ccc(Cl)cc3)cc2C(=O)N([C@H](C)CO)C[C@@H]1C,"inconclusive: 28.2 µM [inhibitor, single point]"
20,CCC(=O)N1CCc2cc(Br)cc(S(=O)(=O)CCC(=O)Nc3ccc(C)c(F)c3)c21,inactive
21,CCOc1cc(N2CCOCC2)c(OCC)cc1NC(=O)COC(=O)CCOc1cc(C)ccc1C,"inconclusive: 22.4 µM [inhibitor, single point]"
22,O=[N+]([O-])c1cc(Br)c(Nc2ccccc2)c([N+](=O)[O-])c1,active: 11.2 µM
23,Fc1ccccc1-c1nc2ccccc2[nH]1,inactive

row,SMILES,Potency
1,CN1CCN(/N=C/c2nc(-c3cccc([N+](=O)[O-])c3)n3ccccc23)CC1,inactive
2,CCOC(=O)N/N=C(C)/C=C/c1ccco1,"inconclusive: 56.2 µM [inhibitor, partial curve, poor fit]"
3,O=C1C2=C(CCCC2)C(=O)N1c1cccc(OCCBr)c1,"inconclusive: 35.5 µM [inhibitor, partial curve]"
4,Cc1ccc(NC(=O)CN2CCCN(S(=O)(=O)c3ccc(Br)s3)CC2)cc1,active: 70.8 µM
5,CCN1C(=O)/C(=C\c2ccc3c(c2)OCO3)C(C(=O)OC)=C1C,"inconclusive: 56.2 µM [inhibitor, single point]"
6,N#Cc1ccc2ccn(CC(=O)NCc3ccco3)c2c1,"inconclusive: 31.6 µM [inhibitor, single point]"
7,S=C(NCCNC(=S)Nc1ccccc1Cl)Nc1ccccc1Cl,inactive
8,CCC1C(=O)NCCN1Cc1nc(-c2ccc(C)s2)oc1C (centres undefined),"inconclusive: 56.2 µM [inhibitor, partial curve, poor fit]"
9,CCOc1cc(/C=C(\C#N)C(=O)Nc2ccc(C)cc2)ccc1OCc1cc(=O)n2nc(CC)sc2n1,inactive
10,O=C(Nc1cccc2ncccc12)c1ccc(-c2ccc(Br)cc2)o1,"inconclusive: 50.1 µM [inhibitor, partial curve]"
11,O=C(Nc1cccnc1)c1ccc(NS(=O)(=O)c2cc([N+](=O)[O-])ccc2Cl)cc1,"inconclusive: 79.4 µM [inhibitor, single point]"
12,CC(=O)N1CCc2cc(S(=O)(=O)CCC(=O)Nc3ccc(Cl)cc3F)ccc21,"inconclusive: 89.1 µM [inhibitor, single point]"
13,COc1cc(CN2CCCN(C)CC2)c([N+](=O)[O-])cc1OC,"inconclusive: 20 µM [inhibitor, full curve]"
14,Cc1cc(-c2nsc(=O)o2)c(S(C)(=O)=O)s1,"inconclusive: 56.2 µM [inhibitor, single point]"
15,COc1ccc(S(=O)(=O)N2CCC(C(=O)NCc3ccco3)CC2)cc1C,"inconclusive: 39.8 µM [inhibitor, single point]"
16,C[C@@H]1C(=O)N(S(=O)(=O)c2ccc([N+](=O)[O-])cc2)[C@H]1c1ccc(F)cc1,"inconclusive: 20 µM [inhibitor, partial curve, poor fit]"
17,Cc1ccccc1CNC(=O)c1ccc(CSc2nc3cccnc3n2Cc2ccccc2)cc1,inactive
18,FC(F)C(F)(F)C1=CC(c2cccs2)=NCCN1,"inconclusive: 35.5 µM [inhibitor, partial curve, poor fit]"
19,Oc1c(Br)cc(C2N=C(c3ccccc3Cl)NO2)cc1Br (centres undefined),"inconclusive: 70.8 µM [inhibitor, single point]"
20,CCCN1C(=O)/C(=C/c2ccc(C)o2)SC1=Nc1ccc(OCC)cc1,"inconclusive: 56.2 µM [inhibitor, single point]"
21,CC(C)Cn1c(N)c(C(=O)CCl)c(=O)n(C)c1=O,"inconclusive: 12.6 µM [inhibitor, full curve]"
22,O=C1NC(c2cn(-c3ccccc3)nc2-c2cccs2)C(C(=O)c2cccnc2)C(O)(C(F)(F)F)N1 (centres undefined),"inconclusive: 22.4 µM [inhibitor, single point]"
23,CCN(CC)S(=O)(=O)c1ccc(NC(=S)NC(=O)CC(C)C)cc1,"inconclusive: 56.2 µM [inhibitor, partial curve]"

row,SMILES,Potency
1,CCCCC(O)(CCCC)C(=O)NN(C(=O)CCl)c1ccccc1,active: 10 µM
2,NC(=O)C1CCN(C(=O)CN(c2ccc3c(c2)OCCO3)S(=O)(=O)c2ccccc2)CC1,inactive
3,CC(C)Sc1nc(N)nc(-c2cccs2)c1C#N,inactive
4,O=C(/C=C/c1ccoc1)c1ccccc1O,inactive
5,COc1cccc(CNS(=O)(=O)c2ccc(-c3cc(C(F)(F)F)on3)s2)c1,inactive
6,CCN(CC)C(=O)Oc1ccc2c(c1)O/C(=C\c1ccco1)C2=O,"inconclusive: 35.5 µM [inhibitor, partial curve]"
7,COc1ccc(N2CCN(C(=O)c3sc4nc5n(c(=O)c4c3C)CCC5)CC2)cc1,inactive
8,Cc1ccc(-c2nc(CS(=O)CC(=O)NC3CCCCC3)c(C)o2)cc1 (centres undefined),"inconclusive: 70.8 µM [inhibitor, partial curve]"
9,CCC1CCc2nc3sc(C(=O)Nc4cccc(C(F)(F)F)c4)c(N)c3cc2C1 (centres undefined),inactive
10,CCCCOc1cccc(C2C(C(=O)c3ccc(C)o3)=C(O)C(=O)N2c2nnc(C)s2)c1 (centres undefined),"inconclusive: 70.8 µM [inhibitor, single point]"
11,COC(=O)c1cc(NS(=O)(=O)c2ccc(NCc3cccnc3)c([N+](=O)[O-])c2)cc(C(=O)OC)c1,"inconclusive: 100 µM [inhibitor, single point]"
12,Fc1ccccc1Cn1c2[n+](c3ccc(C(F)(F)F)cc31)CCCCC2,"inconclusive: 63.1 µM [inhibitor, single point]"
13,O=c1[nH]c(C(F)(F)F)nc2ccc3ccccc3c12,inactive
14,Nc1ccccc1N1CCN(C(=O)c2ccccc2)CC1,inactive
15,CCc1sc(C(=O)Nc2ncccc2C)cc1C,inactive
16,Fc1ccccc1C1c2[nH]c3ccccc3c2CCN1Cc1ccoc1 (centres undefined),"inconclusive: 28.2 µM [inhibitor, partial curve, poor fit]"
17,Cc1ccccc1Nc1c(-c2ccc(Cl)s2)nc2ccccn12,inactive
18,CN1CCN(C(c2cccnc2)c2ccc3cccnc3c2O)CC1 (centres undefined),active: 5.01 µM
19,CN1CCN(C(=O)CCCN2C(=O)/C(=C/c3cccc(Br)c3)SC2=S)CC1,"inconclusive: 44.7 µM [inhibitor, partial curve, poor fit]"
20,C#CCOCCOCCOCCNc1nc(N2CCN(C(=O)[C@H](Cc3cc4ccccc4[nH]3)n3cc([C@@H](N)C(C)CC)nn3)CC2)nc(N2CCN(C(=O)[C@H](CCCCN)n3cc([C@@H](N)CC(C)C)nn3)CC2)n1 (some centres undefined),"inconclusive: 39.8 µM [inhibitor, single point]"
21,Cn1ccs/c1=N\S(=O)(=O)c1ccc(Br)cc1,inactive
22,COc1cc(C)ccc1OCCSc1nc2ccc(NC(=O)c3ccc(C)cc3)cc2s1,"inconclusive: 89.1 µM [inhibitor, single point]"
23,Cc1cc(C)cc(NS(=O)(=O)c2ccc(NC(=S)NC(=O)c3cccs3)cc2)c1,"inconclusive: 79.4 µM [inhibitor, partial curve, poor fit]"
